{
  "source": "the supplement of paper PMC8728848",
  "binders": {"B1": {"name": "exo-alpha-sialidase (Propionibacterium acnes), Q6A7G1 (protein)", "chain": "GSHMSGRAPAPVAATTQPKLVTGDITSTDQSGTNLFFGKKIVRNARGAIMKVDRTWPAAVPAPLPDVRADSSTRMLLGPVVDLAVNEHPEGVFYRIPALATASNGDLLASYDLRPGSAGDAPNPNSIVQRRSRDNGRTWGPQTVIHAGTPGRRKVGYSDPSYLVDPATGRILNFHVKSYDRGFATSEVGTDPDDRHVLHAEVSTSTDNGHTWTHRDITREITSDPTTRTRFVASGQGIALLHGPHAGRLIAQMTVRNSVGQQAQSIYSDDHGITWHAGNPVGRMMDENKVVELSDGTLMLNSRDAARSGRRKVAYSQDGGLTWGPVKLVDDLIDPTNNAQIIRAYPNARAGSAKARILLFTNARNATERVNGTLSVSCDDGRTWVSHQTYMPGEVGYTTAAVQSDGALGVLWERDGIRYSTIPMGWLNSVCPLAPSGRPTSGKPTSGTSLPPTAT"}},
  "test_in_all_cases": "glycan array binding signal (z-score within array); higher = stronger binding",
  "details_in_all_cases": "glycan notation: IUPAC condensed, linker removed",
  "key": {"[1]": {"target": "Neu5Ac(a2-3)Gal(b1-3)GlcNAc(b1-3)Gal(b1-3)GlcNAc", "summary_of_the_method": "(§1)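 From the Consortium for Functional Glycomics database, 3228 arrays were curated, keeping only those whose protein sequence was available. Binding is given as a within-array Z-score averaged across arrays sharing a protein sequence and across linkers. Negative Z-scores can be read as non-binding.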"}, "[2]": {"target": "Neu5Ac(a2-3)Gal(b1-3)GlcNAc(b1-3)Gal(b1-4)GlcNAc", "summary_of_the_method": "as §1"}, "[3]": {"target": "Neu5Ac(a2-3)Gal(b1-3)GlcNAc(b1-3)GalNAc", "summary_of_the_method": "as §1"}, "[4]": {"target": "Neu5Ac(a2-3)Gal(b1-3)GlcNAc6S", "summary_of_the_method": "as §1"}, "[5]": {"target": "Neu5Ac(a2-3)Gal(b1-3)[Fuc(a1-4)]GlcNAc", "summary_of_the_method": "as §1"}, "[6]": {"target": "Neu5Ac(a2-3)Gal(b1-3)[Fuc(a1-4)]GlcNAc(b1-3)Gal(b1-3)[Fuc(a1-4)]GlcNAc", "summary_of_the_method": "as §1"}, "[7]": {"target": "Neu5Ac(a2-3)Gal(b1-3)[Fuc(a1-4)]GlcNAc(b1-3)Gal(b1-4)[Fuc(a1-3)]GlcNAc", "summary_of_the_method": "as §1"}, "[8]": {"target": "Neu5Ac(a2-3)Gal(b1-3)[Neu5Ac(a2-3)Gal(b1-4)]GlcNAc", "summary_of_the_method": "as §1"}, "[9]": {"target": "Neu5Ac(a2-3)Gal(b1-3)[Neu5Ac(a2-6)]GalNAc", "summary_of_the_method": "as §1"}, "[10]": {"target": "Neu5Ac(a2-3)Gal(b1-4)Glc", "summary_of_the_method": "as §1"}, "[11]": {"target": "Neu5Ac(a2-3)Gal(b1-4)GlcNAc", "summary_of_the_method": "as §1"}, "[12]": {"target": "Neu5Ac(a2-3)Gal(b1-4)GlcNAc(b1-2)Man(a1-3)[GlcNAc(b1-2)Man(b1-4)GlcNAc(b1-2)Man(a1-6)]Man(b1-4)GlcNAc(b1-4)GlcNAc", "summary_of_the_method": "as §1"}, "[13]": {"target": "Neu5Ac(a2-3)Gal(b1-4)GlcNAc(b1-2)Man(a1-3)[Neu5Ac(a2-6)Gal(b1-4)GlcNAc(b1-2)Man(a1-6)]Man(b1-4)GlcNAc(b1-4)GlcNAc", "summary_of_the_method": "as §1"}, "[14]": {"target": "Neu5Ac(a2-3)Gal(b1-4)GlcNAc(b1-3)Gal(b1-3)GlcNAc", "summary_of_the_method": "as §1"}, "[15]": {"target": "Neu5Ac(a2-3)Gal(b1-4)GlcNAc(b1-3)Gal(b1-4)GlcNAc", "summary_of_the_method": "as §1"}, "[16]": {"target": "Neu5Ac(a2-3)Gal(b1-4)GlcNAc(b1-3)Gal(b1-4)GlcNAc(b1-3)Gal(b1-4)GlcNAc", "summary_of_the_method": "as §1"}, "[17]": {"target": "Neu5Ac(a2-3)Gal(b1-4)GlcNAc(b1-3)Gal(b1-4)[Fuc(a1-3)]GlcNAc", "summary_of_the_method": "as §1"}, "[18]": {"target": "Neu5Ac(a2-3)Gal(b1-4)GlcNAc(b1-3)GalNAc", "summary_of_the_method": "as §1"}, "[19]": {"target": "Neu5Ac(a2-3)Gal(b1-4)GlcNAc(b1-6)[Gal(b1-3)]GalNAc", "summary_of_the_method": "as §1"}, "[20]": {"target": "Neu5Ac(a2-3)Gal(b1-4)GlcNAc(b1-6)[Neu5Ac(a2-3)Gal(b1-3)]GalNAc", "summary_of_the_method": "as §1"}, "[21]": {"target": "Neu5Ac(a2-3)Gal(b1-4)GlcNAc6S", "summary_of_the_method": "as §1"}, "[22]": {"target": "Neu5Ac(a2-3)Gal(b1-4)[Fuc(a1-3)]GlcNAc", "summary_of_the_method": "as §1"}, "[23]": {"target": "Neu5Ac(a2-3)Gal(b1-4)[Fuc(a1-3)]GlcNAc(b1-3)Gal", "summary_of_the_method": "as §1"}, "[24]": {"target": "Neu5Ac(a2-3)Gal(b1-4)[Fuc(a1-3)]GlcNAc(b1-3)Gal(b1-4)GlcNAc", "summary_of_the_method": "as §1"}, "[25]": {"target": "Neu5Ac(a2-3)Gal(b1-4)[Fuc(a1-3)]GlcNAc(b1-3)Gal(b1-4)[Fuc(a1-3)]GlcNAc(b1-3)Gal(b1-4)[Fuc(a1-3)]GlcNAc", "summary_of_the_method": "as §1"}, "[26]": {"target": "Neu5Ac(a2-3)Gal(b1-4)[Fuc(a1-3)]GlcNAc(b1-3)GalNAc", "summary_of_the_method": "as §1"}, "[27]": {"target": "Neu5Ac(a2-3)Gal(b1-4)[Fuc(a1-3)]GlcNAc(b1-6)[Gal(b1-3)]GalNAc", "summary_of_the_method": "as §1"}, "[28]": {"target": "Neu5Ac(a2-3)Gal(b1-4)[Fuc(a1-3)]GlcNAc(b1-6)[Neu5Ac(a2-3)Gal(b1-3)]GalNAc", "summary_of_the_method": "as §1"}, "[29]": {"target": "Neu5Ac(a2-3)Gal(b1-4)[Fuc(a1-3)]GlcNAc6S", "summary_of_the_method": "as §1"}, "[30]": {"target": "Neu5Ac(a2-3)Gal6S(b1-4)GlcNAc", "summary_of_the_method": "as §1"}, "[31]": {"target": "Neu5Ac(a2-3)Gal6S(b1-4)[Fuc(a1-3)]GlcNAc", "summary_of_the_method": "as §1"}, "[32]": {"target": "Neu5Ac(a2-3)GalNAc", "summary_of_the_method": "as §1"}, "[33]": {"target": "Neu5Ac(a2-3)GalNAc(b1-4)GlcNAc", "summary_of_the_method": "as §1"}, "[34]": {"target": "Neu5Ac(a2-3)[GalNAc(b1-4)]Gal(b1-4)Glc", "summary_of_the_method": "as §1"}, "[35]": {"target": "Neu5Ac(a2-3)[GalNAc(b1-4)]Gal(b1-4)GlcNAc", "summary_of_the_method": "as §1"}, "[36]": {"target": "Neu5Ac(a2-3)[GalNAc(b1-4)]Gal(b1-4)GlcNAc(b1-3)GalNAc", "summary_of_the_method": "as §1"}, "[37]": {"target": "Neu5Ac(a2-3)[Neu5Ac(a2-6)]GalNAc", "summary_of_the_method": "as §1"}, "[38]": {"target": "Neu5Ac(a2-6)Gal", "summary_of_the_method": "as §1"}, "[39]": {"target": "Neu5Ac(a2-6)Gal(b1-4)Glc", "summary_of_the_method": "as §1"}, "[40]": {"target": "Neu5Ac(a2-6)Gal(b1-4)GlcNAc", "summary_of_the_method": "as §1"}},
  "note": "The list shows a part of the results.",
  "data": [
    {"binder": "B1", "values": [
      {"measurement": "glycan array binding signal (z-score)", "setting": "[1]", "value": 2.6},
      {"measurement": "glycan array binding signal (z-score)", "setting": "[2]", "value": 1.55},
      {"measurement": "glycan array binding signal (z-score)", "setting": "[3]", "value": 3.71},
      {"measurement": "glycan array binding signal (z-score)", "setting": "[4]", "value": 2.18},
      {"measurement": "glycan array binding signal (z-score)", "setting": "[5]", "value": -0.034},
      {"measurement": "glycan array binding signal (z-score)", "setting": "[6]", "value": 0.022},
      {"measurement": "glycan array binding signal (z-score)", "setting": "[7]", "value": -0.031},
      {"measurement": "glycan array binding signal (z-score)", "setting": "[8]", "value": 3.09},
      {"measurement": "glycan array binding signal (z-score)", "setting": "[9]", "value": 3.45},
      {"measurement": "glycan array binding signal (z-score)", "setting": "[10]", "value": 0.583},
      {"measurement": "glycan array binding signal (z-score)", "setting": "[11]", "value": 0.727},
      {"measurement": "glycan array binding signal (z-score)", "setting": "[12]", "value": 0.528},
      {"measurement": "glycan array binding signal (z-score)", "setting": "[13]", "value": 0.736},
      {"measurement": "glycan array binding signal (z-score)", "setting": "[14]", "value": 0.379},
      {"measurement": "glycan array binding signal (z-score)", "setting": "[15]", "value": 0.444},
      {"measurement": "glycan array binding signal (z-score)", "setting": "[16]", "value": 0.411},
      {"measurement": "glycan array binding signal (z-score)", "setting": "[17]", "value": 2.02},
      {"measurement": "glycan array binding signal (z-score)", "setting": "[18]", "value": 0.249},
      {"measurement": "glycan array binding signal (z-score)", "setting": "[19]", "value": 1.11},
      {"measurement": "glycan array binding signal (z-score)", "setting": "[20]", "value": 4.39},
      {"measurement": "glycan array binding signal (z-score)", "setting": "[21]", "value": 1.29},
      {"measurement": "glycan array binding signal (z-score)", "setting": "[22]", "value": 0.028},
      {"measurement": "glycan array binding signal (z-score)", "setting": "[23]", "value": -0.222},
      {"measurement": "glycan array binding signal (z-score)", "setting": "[24]", "value": -0.131},
      {"measurement": "glycan array binding signal (z-score)", "setting": "[25]", "value": -0.26},
      {"measurement": "glycan array binding signal (z-score)", "setting": "[26]", "value": 0.236},
      {"measurement": "glycan array binding signal (z-score)", "setting": "[27]", "value": 0.107},
      {"measurement": "glycan array binding signal (z-score)", "setting": "[28]", "value": 1.81},
      {"measurement": "glycan array binding signal (z-score)", "setting": "[29]", "value": -0.305},
      {"measurement": "glycan array binding signal (z-score)", "setting": "[30]", "value": -0.069},
      {"measurement": "glycan array binding signal (z-score)", "setting": "[31]", "value": 0.257},
      {"measurement": "glycan array binding signal (z-score)", "setting": "[32]", "value": 0.845},
      {"measurement": "glycan array binding signal (z-score)", "setting": "[33]", "value": 0.672},
      {"measurement": "glycan array binding signal (z-score)", "setting": "[34]", "value": -0.307},
      {"measurement": "glycan array binding signal (z-score)", "setting": "[35]", "value": -0.316},
      {"measurement": "glycan array binding signal (z-score)", "setting": "[36]", "value": -0.347},
      {"measurement": "glycan array binding signal (z-score)", "setting": "[37]", "value": 4.53},
      {"measurement": "glycan array binding signal (z-score)", "setting": "[38]", "value": 0.711},
      {"measurement": "glycan array binding signal (z-score)", "setting": "[39]", "value": 0.665},
      {"measurement": "glycan array binding signal (z-score)", "setting": "[40]", "value": 0.458}
    ]}
  ]
}
